Assay [1] has as its system HSkMC (human skeletal muscle cells). The assay is described as follows: cytotoxicity call (relative viability < 0.9). The settings on record: 10 µM.
For assay [2], the system named is HepG2. The assay is described as follows: cytotoxicity call (relative viability < 0.9). The note with it: 10 µM.
The test system of assay [3] is S. aureus RN4220. The assay can be described thus: growth inhibition call (relative growth <= 0.2). The note with it: 50 µM.

The list shows a part of the results.

For the compound `Cc1ccc(S(=O)(=O)Nc2ccc3c(c2)C(=O)N([C@H](C)CO)C[C@@H](C)[C@@H](CN(C)C(=O)c2ccccc2)OCCCC[C@H](C)O3)cc1`, the cytotoxicity call in assay [1] and in assay [2] was “inactive” throughout. For the same compound, in assay [3], the growth inhibition call is “inactive”.
Regarding `COCC(=O)N1CCN2C[C@H](C(=O)O)CN(Cc3ccoc3)C[C@@H]2C1`, the cytotoxicity call in assay [1] and in assay [2] was “inactive” in each case. The growth inhibition call in assay [3] is “inactive”.
Take `C[C@H]1CN([C@@H](C)CO)S(=O)(=O)c2ccc(C3=CCCC3)cc2O[C@@H]1CN(C)C(=O)Cc1ccncc1`: the cytotoxicity call in assay [1] and in assay [2] was “inactive” each time. In assay [3], the growth inhibition call is “inactive”.
For `C[C@H]1CN([C@@H](C)CO)C(=O)Cc2cc(NC(=O)CCC(F)(F)F)ccc2O[C@@H]1CN(C)Cc1ccc(-c2ccccc2)cc1`, the cytotoxicity call in assay [1] is “inactive”. Also, the cytotoxicity call in assay [2] is “active”. For the same compound, the growth inhibition call in assay [3] was “inactive”.
As to `COc1ccccc1NC(=O)N(C)C[C@@H]1Oc2ncc(C#CC(C)C)cc2C(=O)N([C@@H](C)CO)C[C@H]1C`, the cytotoxicity call in assay [1] and in assay [2] was “inactive” throughout. In assay [3], the growth inhibition call is “inactive”.
With `C[C@H]1CN([C@@H](C)CO)C(=O)c2cc(NC(=O)Nc3ccc(C(F)(F)F)cc3)ccc2O[C@@H]1CN(C)Cc1ccc2c(c1)OCO2`, the cytotoxicity call in assay [1] and in assay [2] was “active” each time. Besides, the growth inhibition call in assay [3] was “inactive”.
Take `CCn1nnc(NC(=O)Cc2ccccc2)n1`: the cytotoxicity call in assay [1] and in assay [2] was “inactive” each time. Further, in assay [3], the growth inhibition call is “inactive”.
As for `Cc1noc(C)c1NC(=O)N(C)C[C@H]1Oc2ccc(NC(=O)CCCN(C)C)cc2C(=O)N([C@H](C)CO)C[C@H]1C`, the cytotoxicity call in assay [1] and in assay [2] was “inactive” in each case. Moreover, the growth inhibition call in assay [3] is “inactive”.
As to `O=C(CN1CCOCC1)N[C@H]1CC[C@H](CCNS(=O)(=O)c2ccccc2F)O[C@@H]1CO`, the cytotoxicity call in assay [1] and in assay [2] was “inactive” throughout. Moreover, the growth inhibition call in assay [3] is “inactive”.
As to `CC(C)CC#Cc1cnc2c(c1)C(=O)N([C@@H](C)CO)C[C@H](C)[C@H](CN(C)C(=O)c1ccc3c(c1)OCO3)O2`, the cytotoxicity call in assay [1] and in assay [2] was “inactive” in each case. Also, in assay [3], the growth inhibition call was “inactive”.
In the case of `NNC(=O)CNC(=O)[C@H]1COc2ccccc2O1`, the cytotoxicity call in assay [1] and in assay [2] was “inactive” each time. Moreover, the growth inhibition call in assay [3] is “inactive”.
On to `C[C@@H]1CN([C@@H](C)CO)C(=O)c2cc(NC(=O)CCC(F)(F)F)ccc2O[C@@H]1CN(C)S(=O)(=O)c1cn(C)cn1`, for which the cytotoxicity call in assay [1] and in assay [2] was “inactive” in each case. In addition, the growth inhibition call in assay [3] is “inactive”.
Consider `C[C@@H]1CN([C@H](C)CO)C(=O)c2cc(NC(=O)Nc3cccc4ccccc34)ccc2O[C@@H](C)CCCCO[C@H]1CN(C)S(C)(=O)=O`, for which the cytotoxicity call in assay [1] and in assay [2] was “inactive” throughout. Also, the growth inhibition call in assay [3] is “inactive”.
With `CC(C)NC(=O)Nc1ccc2c(c1)C(=O)N([C@H](C)CO)C[C@@H](C)[C@H](CN(C)S(C)(=O)=O)OCCCC[C@@H](C)O2`, the cytotoxicity call in assay [1] and in assay [2] was “inactive” throughout. For the same compound, the growth inhibition call in assay [3] was “inactive”.
On to `OC[C@@H]1COCCN1Cc1ccccc1`, for which the cytotoxicity call in assay [1] and in assay [2] was “inactive” each time. Further, in assay [3], the growth inhibition call is “inactive”.
Consider `C[C@@H]1CN([C@H](C)CO)C(=O)c2cccc(NS(=O)(=O)c3ccc(F)cc3)c2O[C@@H]1CN(C)S(=O)(=O)c1cccs1`, for which the cytotoxicity call in assay [1] and in assay [2] was “inactive” each time. Moreover, the growth inhibition call in assay [3] is “inactive”.
With `C[C@@H]1CCCCO[C@@H](CN(C)S(=O)(=O)c2cn(C)cn2)[C@@H](C)CN([C@@H](C)CO)C(=O)c2cc(NC(=O)CCCN(C)C)ccc2O1`, the cytotoxicity call in assay [1] and in assay [2] was “inactive” in each case. Further, the growth inhibition call in assay [3] was “inactive”.
On to `CN1C[C@H](O)COC[C@H]2O[C@@H](CC(=O)N3CCN(c4ccccc4)CC3)CC[C@@H]21`, for which the cytotoxicity call in assay [1] and in assay [2] was “inactive” in each case. The growth inhibition call in assay [3] was “inactive”.
With `C[N+](C)(C)CCCC[C@@H]1NC(=O)[C@@H]2C[C@H](C(=O)NCCCCCNC(=O)CS)[C@H](c3ccc(O)cc3)N2C1=O`, the cytotoxicity call in assay [1] and in assay [2] was “inactive” throughout. The growth inhibition call in assay [3] is “inactive”.
Regarding `O=C(CCC1CCCC1)N1CCCC1`, the cytotoxicity call in assay [1] and in assay [2] was “inactive” each time. Further, the growth inhibition call in assay [3] is “inactive”.
On to `Cc1ccc(S(=O)(=O)N(C)C[C@@H]2Oc3c(NC(=O)C4CCOCC4)cccc3C(=O)N([C@@H](C)CO)C[C@H]2C)cc1`, for which the cytotoxicity call in assay [1] and in assay [2] was “inactive” each time. Moreover, the growth inhibition call in assay [3] was “inactive”.
For the compound `C[C@@H]1CN([C@@H](C)CO)C(=O)c2cc(NC(=O)Nc3cccc4ccccc34)ccc2O[C@@H]1CN(C)C(=O)Nc1ccc(C(F)(F)F)cc1`, the cytotoxicity call in assay [1] and in assay [2] was “inactive” throughout. The growth inhibition call in assay [3] is “inactive”.
Take `Cn1cc(C(F)(F)F)ccc1=S`: the cytotoxicity call in assay [1] and in assay [2] was “inactive” in each case. Also, the growth inhibition call in assay [3] was “inactive”.
For `C[C@H](CO)N1C[C@H](C)[C@H](CN(C)Cc2ccc(Oc3ccccc3)cc2)Oc2ccc(NS(=O)(=O)c3cccs3)cc2CC1=O`, the cytotoxicity call in assay [1] and in assay [2] was “inactive” each time. Further, the growth inhibition call in assay [3] was “inactive”.
On to `CNC[C@@H]1Oc2ccc(NS(=O)(=O)c3cn(C)cn3)cc2CC(=O)N([C@@H](C)CO)C[C@@H]1C`, for which the cytotoxicity call in assay [1] and in assay [2] was “inactive” in each case. Further, the growth inhibition call in assay [3] is “inactive”.
As to `CN(C)CC(=O)N1CCOC[C@@H]1c1nccc(N2CCOCC2)n1`, the cytotoxicity call in assay [1] and in assay [2] was “inactive” each time. Further, the growth inhibition call in assay [3] is “inactive”.
`Cc1ccc(S(=O)(=O)Nc2ccc3c(c2)CC(=O)N([C@H](C)CO)C[C@H](C)[C@@H](CN(C)Cc2ccc(C(F)(F)F)cc2)O3)cc1`: the cytotoxicity call in assay [1] and in assay [2] was “inactive” in each case. In addition, the growth inhibition call in assay [3] was “inactive”.

The values are drawn from the antibiotic and cytotoxicity screens of Wong et al. (2023).
